# Test results published in the supplement of paper PMC10037445.
# Values joined by “and” are separate entries in the source; they are usually repeats but may differ in a detail not shown here. Equal values may be shown once. The full ranking holds about 2,900 compounds; the median of “NF-kB SEAP reporter activity, fold change vs agonist alone” is about 0.99, and the highest 2% start at about 2.6. The list shows a part of the results.
# How the values were obtained:
# [1] = test system: RAW-Dual; assay: NF-kB SEAP reporter activity, fold change vs agonist alone; higher = enhanced NF-kB activity; settings: cytotoxicity flag (confluency mask): not cytotoxic
# In short: (§1)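 Reporter activity is given as fold change relative to agonist-alone wells. To measure it, 50 nL of library stock was pin-tooled onto RAW-Dual macrophages (50,000 cells/well, DMEM, 384-well plates), a PRR agonist followed 1 h later, and cells stayed at 37 °C, 5% CO2. Twenty hours on, supernatant was assayed for IRF (QuantiLuc luminescence) and NF-κB (QuantiBlue, 620 nm absorbance), and wells under 70% of agonist-control IncuCyte confluency in both mask sets were marked cytotoxic.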
# [2] = test system: RAW-Dual; assay: NF-kB SEAP reporter activity, fold change vs agonist alone; cytotoxicity flag (confluency mask): not cytotoxic; higher = enhanced NF-kB activity
# In short: as §1
# [3] = test system: RAW-Dual; assay: NF-kB SEAP reporter activity, fold change vs agonist alone; cytotoxicity flag (confluency mask): cytotoxic (confluency <70% of control); higher = enhanced NF-kB activity
# In short: as §1
# [4] = library stock concentration (final ~1000-fold dilution): 10 mM, agonist: Imiquimod (TLR7) […]
# [5] = library stock concentration (final ~1000-fold dilution): 10 mM, agonist: MPLA (TLR4) […]
# [6] = agonist: ODN 1826 (TLR9) 0.5 ug/mL
# [7] = agonist: Pam2CSK4 (TLR2/6) 0.1 ug/mL
# [8] = agonist: Pam3CSK4 (TLR2/1) 0.1 ug/mL
smiles,measurement,setting,value
CNS(=O)(=O)CC1CCC(N(C)c2ncnc3[nH]ccc23)CC1.O=C(O)/C=C\C(=O)O (stereo not drawn),NF-kB SEAP reporter activity,[1]; [4],0.344
same,NF-kB SEAP reporter activity,[1]; [5],0.601
CCC(C)Nc1cc(C(=O)NC2CC3CCC(C2)N3c2ccc(C(=O)C3CC3)cn2)c(C)cc1C(N)=O (stereo not drawn) (library stock concentration (final ~1000-fold dilution): 10 mM),NF-kB SEAP reporter activity,[2]; agonist: LPS (TLR4) 0.1 ug/mL,0.213
same,NF-kB SEAP reporter activity,[2]; [6],0.206
same,NF-kB SEAP reporter activity,[2]; [7],0.0829
same,NF-kB SEAP reporter activity,[2]; [8],0.117
CCC(C)Nc1cc(C(=O)NC2CC3CCC(C2)N3c2ccc(C(=O)C3CC3)cn2)c(C)cc1C(N)=O (stereo not drawn),NF-kB SEAP reporter activity,[1]; [4],0.273
same,NF-kB SEAP reporter activity,[1]; [5],0.34
CC(C)n1cnc2c(NCCc3ccc(O)cc3)nc(-c3csc4ccccc34)nc21 (library stock concentration (final ~1000-fold dilution): 10 mM),NF-kB SEAP reporter activity,[2]; agonist: LPS (TLR4) 0.1 ug/mL,3.02
same,NF-kB SEAP reporter activity,[2]; [6],1.56
same,NF-kB SEAP reporter activity,[2]; [7],0.535
same,NF-kB SEAP reporter activity,[2]; [8],0.662
CC(C)n1cnc2c(NCCc3ccc(O)cc3)nc(-c3csc4ccccc34)nc21,NF-kB SEAP reporter activity,[1]; [4],2.38
same,NF-kB SEAP reporter activity,[1]; [5],2.64
CC(C)NC(=N)NC(=N)Nc1ccc(Cl)cc1,NF-kB SEAP reporter activity,[1]; [4],1.04
same,NF-kB SEAP reporter activity,[1]; [5],1.38
CC(C)NC(=N)NC(=N)Nc1ccc(Cl)cc1 (library stock concentration (final ~1000-fold dilution): 10 mM),NF-kB SEAP reporter activity,[2]; agonist: LPS (TLR4) 0.1 ug/mL,1.34
same,NF-kB SEAP reporter activity,[2]; [6],0.832
same,NF-kB SEAP reporter activity,[2]; [7],0.658
same,NF-kB SEAP reporter activity,[2]; [8],0.69
CC(CS)C(=O)N1CCCC1C(=O)O (stereo not drawn) (library stock concentration (final ~1000-fold dilution): 10 mM),NF-kB SEAP reporter activity,[2]; agonist: LPS (TLR4) 0.1 ug/mL,1.07
same,NF-kB SEAP reporter activity,[2]; [6],1.03
same,NF-kB SEAP reporter activity,[2]; [7],1.02
same,NF-kB SEAP reporter activity,[2]; [8],0.944
CC(CS)C(=O)N1CCCC1C(=O)O (stereo not drawn),NF-kB SEAP reporter activity,[1]; [4],0.911
same,NF-kB SEAP reporter activity,[1]; [5],1.08
Cc1nc2c(O)cccc2c(=O)[nH]1,NF-kB SEAP reporter activity,[1]; [4],0.857
same,NF-kB SEAP reporter activity,[1]; [5],1.06
Cc1nc2c(O)cccc2c(=O)[nH]1 (library stock concentration (final ~1000-fold dilution): 10 mM),NF-kB SEAP reporter activity,[2]; agonist: LPS (TLR4) 0.1 ug/mL,1.03
same,NF-kB SEAP reporter activity,[2]; [6],1.01
same,NF-kB SEAP reporter activity,[2]; [7],1.08
same,NF-kB SEAP reporter activity,[2]; [8],1.06
O=C(NNc1ccccc1)c1ccncc1 (library stock concentration (final ~1000-fold dilution): 10 mM),NF-kB SEAP reporter activity,[2]; agonist: LPS (TLR4) 0.1 ug/mL,1.51
same,NF-kB SEAP reporter activity,[2]; [6],0.976
same,NF-kB SEAP reporter activity,[2]; [7],0.592
same,NF-kB SEAP reporter activity,[2]; [8],0.782
O=C(NNc1ccccc1)c1ccncc1,NF-kB SEAP reporter activity,[1]; [4],1.18
same,NF-kB SEAP reporter activity,[1]; [5],1.36
Cn1c(=O)c(F)c(Nc2ccc(I)cc2F)c2c(=O)n(CC(O)CO)cnc21 (stereo not drawn) (library stock concentration (final ~1000-fold dilution): 10 mM),NF-kB SEAP reporter activity,[2]; agonist: LPS (TLR4) 0.1 ug/mL,0.214
same,NF-kB SEAP reporter activity,[2]; [6],0.227
same,NF-kB SEAP reporter activity,[2]; [7],0.121
same,NF-kB SEAP reporter activity,[2]; [8],0.251
Cn1c(=O)c(F)c(Nc2ccc(I)cc2F)c2c(=O)n(CC(O)CO)cnc21 (stereo not drawn),NF-kB SEAP reporter activity,[1]; [4],0.197
same,NF-kB SEAP reporter activity,[1]; [5],0.195
c1cc(CN2CCCNCCNCCCNCC2)ccc1CN1CCCNCCNCCCNCC1,NF-kB SEAP reporter activity,"[1]; library stock concentration (final ~1000-fold dilution): 2 mM water, agonist: Imiquimod (TLR7) […]",0.828
same,NF-kB SEAP reporter activity,"[1]; library stock concentration (final ~1000-fold dilution): 2 mM water, agonist: MPLA (TLR4) […]",0.771
c1cc(CN2CCCNCCNCCCNCC2)ccc1CN1CCCNCCNCCCNCC1 (library stock concentration (final ~1000-fold dilution): 2 mM water),NF-kB SEAP reporter activity,[2]; agonist: LPS (TLR4) 0.1 ug/mL,0.992
same,NF-kB SEAP reporter activity,[2]; [6],0.867
same,NF-kB SEAP reporter activity,[2]; [7],0.994
same,NF-kB SEAP reporter activity,[2]; [8],1.14
C#Cc1cccc(Nc2ncnc3cc(OC)c(NC(=O)N4CC5CCN(C)C5C4)cc23)c1 (stereo not drawn) (library stock concentration (final ~1000-fold dilution): 10 mM),NF-kB SEAP reporter activity,[2]; agonist: LPS (TLR4) 0.1 ug/mL,3.99
same,NF-kB SEAP reporter activity,[2]; [6],0.205
same,NF-kB SEAP reporter activity,[2]; [7],0.732
same,NF-kB SEAP reporter activity,[2]; [8],0.783
C#Cc1cccc(Nc2ncnc3cc(OC)c(NC(=O)N4CC5CCN(C)C5C4)cc23)c1 (stereo not drawn),NF-kB SEAP reporter activity,[1]; [4],1.09
same,NF-kB SEAP reporter activity,[1]; [5],1.4
CC(=O)O[C@@H]1CC[C@@]2(C)[C@@H](CC[C@]3(C)[C@@H]2C(=O)C=C2[C@@H]4[C@@H](C)[C@H](C)CC[C@]4(C)CC[C@]23C)[C@@]1(C)C(=O)O (library stock concentration (final ~1000-fold dilution): 10 mM),NF-kB SEAP reporter activity,[2]; agonist: LPS (TLR4) 0.1 ug/mL,0.709
same,NF-kB SEAP reporter activity,[2]; [6],0.986
same,NF-kB SEAP reporter activity,[2]; [7],0.629
same,NF-kB SEAP reporter activity,[2]; [8],0.976
CC(=O)O[C@@H]1CC[C@@]2(C)[C@@H](CC[C@]3(C)[C@@H]2C(=O)C=C2[C@@H]4[C@@H](C)[C@H](C)CC[C@]4(C)CC[C@]23C)[C@@]1(C)C(=O)O,NF-kB SEAP reporter activity,[1]; [4],0.923
same,NF-kB SEAP reporter activity,[1]; [5],0.977
O=C(NCCCNc1nc(Nc2cccc(NC(=O)N3CCCC3)c2)ncc1I)c1cccs1 (library stock concentration (final ~1000-fold dilution): 10 mM),NF-kB SEAP reporter activity,[3]; agonist: LPS (TLR4) 0.1 ug/mL,0.329 and 0.35
same,NF-kB SEAP reporter activity,[3]; [6],0.729 and 1.48
same,NF-kB SEAP reporter activity,[3]; [7],0.0917 and 0.128
same,NF-kB SEAP reporter activity,[3]; [8],0.252 and 0.376
Cc1ccccc1C(=O)Nc1ccc(C(=O)N2CCCC(N(C)C)c3ccccc32)cc1 (stereo not drawn) (library stock concentration (final ~1000-fold dilution): 2 mM),NF-kB SEAP reporter activity,[2]; agonist: LPS (TLR4) 0.1 ug/mL,1.12
same,NF-kB SEAP reporter activity,[2]; [6],0.973
same,NF-kB SEAP reporter activity,[2]; [7],0.996
same,NF-kB SEAP reporter activity,[2]; [8],0.972
Cc1ccccc1C(=O)Nc1ccc(C(=O)N2CCCC(N(C)C)c3ccccc32)cc1 (stereo not drawn),NF-kB SEAP reporter activity,"[1]; library stock concentration (final ~1000-fold dilution): 2 mM, agonist: Imiquimod (TLR7) […]",0.98
same,NF-kB SEAP reporter activity,"[1]; library stock concentration (final ~1000-fold dilution): 2 mM, agonist: MPLA (TLR4) […]",1.01
Cc1ccc(C)c(N/C=C/C(=O)c2ccccc2)c1 (library stock concentration (final ~1000-fold dilution): 10 mM),NF-kB SEAP reporter activity,[2]; agonist: LPS (TLR4) 0.1 ug/mL,1.66
same,NF-kB SEAP reporter activity,[2]; [6],1.1
same,NF-kB SEAP reporter activity,[2]; [7],1.03
same,NF-kB SEAP reporter activity,[2]; [8],1.1
Cc1ccc(C)c(N/C=C/C(=O)c2ccccc2)c1,NF-kB SEAP reporter activity,[1]; [4],1.01
same,NF-kB SEAP reporter activity,[1]; [5],1.38
